# Counter-ions that a name gives are not always drawn. The name of at least one read-out is uncertain.
# System: anesthetized rats
# Assay: Anesthetized rat spirometry screening assay (ventilatory activity, minute volume)
# Format: in vivo
# Details: ratio compared to N-(2,6-Bis-propylamino-pyrimidin-4-yl)-O,N-dimethyl-hydroxylamine hydrogen sulfate; for Peak ratio @ 0.3 dose*: 0.3 mg/kg IV; for Peak ratio @ 3.0 dose *: 3.0 mg/kg IV
# Procedure, shortened: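 Urethane-anesthetized (1.5 g/kg i.v.) rats with tracheal cannula to pneumotachometer; minute volume derived from respiratory rate × tidal volume. Compounds given as i.v. bolus at 0.1 and/or 0.3 and/or 3 mg/kg, monitored at least 6 min; data as 30 s averages.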
Compound,Peak ratio @ 0.3 dose*,Peak ratio @ 3.0 dose *
"CNc1nc(NC)c2nc(NCC(C)(C)O)nc(NC)c2n1 [Compound 149, 2-Methyl-1-(4,6,8-tris-methylamino-pyrimido[5,4-d]pyrimidin-2-ylamino)-propan-2-ol]",0.10,0.30
"CC[C@H](C)Nc1nc(NC)c2nc(NCC(C)(C)O)nc(NC)c2n1 [Compound 103, 1-[6-((S)-sec-Butylamino)-4,8-bis-methylamino-pyrimido[5,4-d]-pyrimidin-2-ylamino]-2-methyl-propan-2-ol]",0.03,0.52
"CCNc1nc(NCC(C)(C)O)c2nc(NCC)nc(NCC)c2n1 [Compound 49a, 2-Methyl-1-(2,6,8-tris-ethylamino-pyrimido[5,4-d]-pyrimidin-4-ylamino)-propan-2-ol Hydrochloride]",0.73,1.05
"CCCNc1nc(NC)c2nc(N[C@@H]3CCCC[C@@H]3O)nc(NC)c2n1 [Compound 135, (1S,2R)-2-(4,8-Bis-methylamino-6-propylamino-pyrimido[5,4-d]pyrimidin-2-ylamino)-cyclohexanol]",0.11,0.68
"CNc1nc(NCC(C)(C)O)nc2c(NC)nc(NCc3ncccn3)nc12 [Compound 109, 1-{4,8-Bis-methylamino-6-[(pyrimidin-2-ylmethyl)-amino]-pyrimido[5,4-d]pyrimidin-2-ylamino}-2-methyl-propan-2-ol]",0.10,0.05
"CCCNc1nc(NC)nc2c(N[C@@H]3CCCC[C@@H]3O)nc(NC)nc12 [Compound 84, (1S,2R)-2-(2,6-Bis-methylamino-8-propylamino-pyrimido[5,4-d]pyrimidin-4-ylamino)-cyclohexanol]",1.04,1.13
"CCCNc1nc(NC)c2nc(NCC(C)(C)O)nc(NC)c2n1 [Compound 94, 1-(4,8-Bis-methylamino-6-propylamino-pyrimido[5,4-d]pyrimidin-2-ylamino)-2-methyl-propan-2-ol]",0.13,0.91
"CNc1nc(NC[C@@H](C)O)nc2c(NC)nc(NCC3CC3)nc12 [Compound 144, (R)-1-[6-(Cyclopropylmethyl-amino)-4,8-bis-methylamino-pyrimido[5,4-d]pyrimidin-2-ylamino]-propan-2-ol]",0.08,0.50
"CCCNc1nc(NC)c2nc(N[C@H]3CCCC[C@H]3O)nc(NC)c2n1 [Compound 131, (1R,2S)-2-(4,8-Bis-methylamino-6-propylamino-pyrimido[5,4-d]pyrimidin-2-ylamino)-cyclohexanol]",0.08,0.62
"CNc1nc(NCC(C)(C)O)c2nc(NC)nc(NC)c2n1 [Compound 48a, 2-Methyl-1-(2,6,8-tris-methylamino-pyrimido[5,4-d]-pyrimidin-4-ylamino)-propan-2-ol Hydrochloride]",0.12,0.45
"CCCNc1nc(NC)c2nc(N[C@H]3CCCC[C@@H]3O)nc(NC)c2n1 [Compound 133, (1S,2S)-2-(4,8-Bis-methylamino-6-propylamino-pyrimido[5,4-d]pyrimidin-2-ylamino)-cyclohexanol]",0.18,0.58
"CCCNc1nc(NC)nc2c(N[C@H]3c4ccccc4C[C@H]3O)nc(NC)nc12 [Compound 79, (1S,2R)-1-(2,6-Bis-methylamino-8-propylamino-pyrimido[5,4-d]pyrimidin-4-ylamino)-indan-2-ol]",0.30,0.89
"CCCNc1nc(NCC)c2nc(NCC(C)(C)O)nc(NCC)c2n1 [Compound 163, 1-(4,8-Bis-ethylamino-6-propylamino-pyrimido[5,4-d]pyrimidin-2-ylamino)-2-methyl-propan-2-ol]",0.49,0.80
"CNc1nc(NCCO)c2nc(NC)nc(NC)c2n1 [Compound 52a, 2-(2,6,8-Tris-methylamino-pyrimido[5,4-d]pyrimidin-4-ylamino)-ethanol Hydrochloride]",0.16,–
"CCCNc1nc(NC)nc2c(N[C@@H]3c4ccccc4C[C@@H]3O)nc(NC)nc12 [Compound 77, (1R,2S)-1-(2,6-Bis-methylamino-8-propylamino-pyrimido[5,4-d]-pyrimidin-4-ylamino)-indan-2-ol]",0.55,0.77
"CCCNc1nc(NC)nc2c(NCC(O)(CC)CC)nc(NC)nc12 [Compound 74a, 3-[(2,6-Bis-methylamino-8-propylamino-pyrimido[5,4-d]pyrimidin-4-ylamino)-methyl]-pentan-3-ol Hydrochloride]",0.77,1.05
"CCCNc1nc(NC)nc2c(NCC(C)(C)O)nc(NC)nc12 [Compound 31a, 1-(2,6-Bis-methylamino-8-propylamino-pyrimido[5,4-d]pyrimidin-4-ylamino)-2-methyl-propan-2-ol Hydrochloride]",0.58,–
"CCCNc1nc(NC)nc2c(NCC(O)CC)nc(NC)nc12 (centres unmarked) [Compound 24a, 1-(2,6-Bis-methylamino-8-propylamino-pyrimido[5,4-d]pyrimidin-4-ylamino)-butan-2-ol Hydrochloride]",0.87,1.05
"CCC(O)CNc1nc(NC)c2nc(NCC3CC3)nc(NC)c2n1 (centres unmarked) [Compound 146, 1-[6-(Cyclopropylmethyl-amino)-4,8-bis-methylamino-pyrimido[5,4-d]pyrimidin-2-ylamino]-butan-2-ol]",0.06,0.76
"CCCNc1nc(NC)nc2c(N[C@H](C)CO)nc(NC)nc12 [Compound 20a, (R)-2-(2,6-Bis-methylamino-8-propylamino-pyrimido[5,4-d]-pyrimidin-4-ylamino)-propan-1-ol Hydrochloride]",0.68,–
"CCCNc1nc(NC)nc2c(NCC3(O)CCC3)nc(NC)nc12 [Compound 72a, 1-[(2,6-Bis-methylamino-8-propylamino-pyrimido[5,4-d]pyrimidin-4-ylamino)-methyl]-cyclobutanol Hydrochloride]",0.94,1.07
"CCNc1nc(NC)c2nc(NCC(O)CC)nc(NC)c2n1 (centres unmarked) [Compound 147, 1-(6-Ethylamino-4,8-bis-methylamino-pyrimido[5,4-d]pyrimidin-2-ylamino)-butan-2-ol]",0.20,0.93

# — US10294228B2, “Breathing control modulating compounds, and methods of making and using same” (NEURAD LTD., priority 2015, dated 2019)
